± gives the standard error. This sample is rich in variants without activity.
B1: glmS ribozyme (parent)
chain: AUAAAAGCGCCAGAACUACAGAAAUGUAGUUGACGAGGAGGAGGUUUAUCGAAUUUUCGGCGGAUGCCUCCAAA

How the values were obtained:
Details in all cases: with glucosamine-6-phosphate
[1] = variants of: B1; assay: self-cleavage kobs at 40 uM GlcN6P; higher = faster cleavage; RNA array
How it was run: (§1)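 Tiles of sequenced MiSeq chips were imaged over ~14 h at 37 °C. On them, barcoded ribozyme variants had been transcribed in situ by E. coli RNA polymerase and were tracked via a hybridised Cy3 probe while glucosamine-6-phosphate (40 μM to 10 mM) in HEPES/KCl/Mg(OAc)2 buffer flowed in. Per-tile medians, normalised to baseline and to non-cleaving reference variants, were fit to one- or two-exponential decays for kobs, and weighted Michaelis–Menten fits gave kcat and KM.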

[2] = variants of: B1; assay: self-cleavage kobs at 640 uM GlcN6P; higher = faster cleavage; RNA array
How it was run: as §1

[3] = variants of: B1; assay: self-cleavage kobs at 160 uM GlcN6P; higher = faster cleavage; RNA array
How it was run: as §1

[4] = variants of: B1; assay: self-cleavage kobs at 2500 uM GlcN6P; higher = faster cleavage; RNA array
How it was run: as §1

[5] = variants of: B1; assay: self-cleavage kobs at 10000 uM GlcN6P; higher = faster cleavage; RNA array
How it was run: as §1

Variant	self-cleavage kobs at 40 uM GlcN6P [1] [s⁻¹]	self-cleavage kobs at 640 uM GlcN6P [2] [s⁻¹]	self-cleavage kobs at 160 uM GlcN6P [3] [s⁻¹]	self-cleavage kobs at 2500 uM GlcN6P [4] [s⁻¹]	self-cleavage kobs at 10000 uM GlcN6P [5] [s⁻¹]
G51U G60C C70G	< 1e-05	–	–	–	–
G44U G60C	< 1e-05	< 1e-05	< 1e-05	< 1e-05	< 1e-05
G43U G60A	< 1e-05	< 1e-05	< 1e-05	< 1e-05	< 1e-05
U45G U57G	< 1e-05	–	< 1e-05	–	3.68e-05 ± 9e-06
A48U G62A	< 1e-05	< 1e-05	< 1e-05	< 1e-05	< 1e-05
U46A G66C	5.47e-05 ± 1.7e-05	–	–	–	–
A48C G59C	< 1e-05	< 1e-05	< 1e-05	< 1e-05	< 1e-05
U47G U56C A64G	< 1e-05	2.82e-05 ± 1.4e-05	–	7.42e-05 ± 1.5e-05	9.62e-05 ± 1.7e-05
G44U A48C	< 1e-05	< 1e-05	< 1e-05	–	< 1e-05
G44U A48U	< 1e-05	< 1e-05	< 1e-05	< 1e-05	–
G44U G63A	< 1e-05	< 1e-05	< 1e-05	< 1e-05	< 1e-05
G44U G63C	< 1e-05	< 1e-05	< 1e-05	< 1e-05	< 1e-05
U45C G63A A64G	< 1e-05	–	–	–	–
U46A G59U	< 1e-05	< 1e-05	< 1e-05	–	< 1e-05
C50A U56C C71A	< 1e-05	–	–	–	< 1e-05
A42C C61U C71A	< 1e-05	–	–	–	–
U46G G62U	< 1e-05	< 1e-05	< 1e-05	< 1e-05	< 1e-05
U45G C50U	< 1e-05	–	< 1e-05	–	–
U49A A53U	< 1e-05	–	–	–	–
A42C C68U	< 1e-05	–	< 1e-05	–	–
G41U G62A	< 1e-05	< 1e-05	–	< 1e-05	< 1e-05
A42C G51U	< 1e-05	< 1e-05	< 1e-05	–	–

Variant	self-cleavage kobs at 40 uM GlcN6P [1] [s⁻¹]	self-cleavage kobs at 640 uM GlcN6P [2] [s⁻¹]	self-cleavage kobs at 160 uM GlcN6P [3] [s⁻¹]	self-cleavage kobs at 2500 uM GlcN6P [4] [s⁻¹]	self-cleavage kobs at 10000 uM GlcN6P [5] [s⁻¹]
U47G C70U	0.000323 ± 3.2e-05	0.00192 ± 0.00055	0.000641 ± 8.8e-05	0.000583 ± 0.00011	–
G43A G62U	< 1e-05	–	< 1e-05	< 1e-05	–
G41U G60A	< 1e-05	< 1e-05	–	–	–
A42G G43A	< 1e-05	5.32e-05 ± 1.5e-05	–	8.7e-05 ± 2.3e-05	0.000143 ± 2.8e-05
G44U U56A G60U U69G	< 1e-05	< 1e-05	< 1e-05	< 1e-05	–
U49C G59A	< 1e-05	–	–	–	–
A42G G60C	< 1e-05	–	–	–	< 1e-05
A42G G60U	< 1e-05	< 1e-05	< 1e-05	< 1e-05	–
U47G G51A	< 1e-05	–	–	–	–
G43U G44C	< 1e-05	< 1e-05	–	< 1e-05	< 1e-05
G43C G60U	< 1e-05	< 1e-05	< 1e-05	< 1e-05	< 1e-05
G41U G51U	< 1e-05	< 1e-05	< 1e-05	< 1e-05	< 1e-05
A42G C61A	< 1e-05	–	–	< 1e-05	< 1e-05
A48U G66U	< 1e-05	–	–	–	–
A48C C68U	< 1e-05	–	–	6.35e-05 ± 1.3e-05	7.54e-05 ± 1.1e-05
G44C C50G U54C	< 1e-05	–	–	–	–
G41U U49A	< 1e-05	< 1e-05	–	–	< 1e-05
U46G G51U U57A C70G	4.37e-05 ± 1.9e-05	–	–	–	–
U45A C50A	< 1e-05	–	< 1e-05	–	–
U45A C50G	< 1e-05	< 1e-05	< 1e-05	–	< 1e-05
A42G G59U	< 1e-05	–	–	–	–
A42U C71G	< 1e-05	–	–	–	–

Variant	self-cleavage kobs at 40 uM GlcN6P [1] [s⁻¹]	self-cleavage kobs at 640 uM GlcN6P [2] [s⁻¹]	self-cleavage kobs at 160 uM GlcN6P [3] [s⁻¹]	self-cleavage kobs at 2500 uM GlcN6P [4] [s⁻¹]	self-cleavage kobs at 10000 uM GlcN6P [5] [s⁻¹]
A42C C50G	< 1e-05	–	–	–	< 1e-05
U47G G59A	< 1e-05	–	–	–	–
U47G G59C	< 1e-05	< 1e-05	–	< 1e-05	< 1e-05
U49G A53C G60C	< 1e-05	–	–	–	–
U45A U54A	0.00179 ± 0.00033	0.0204 ± 0.0069	0.00611 ± 0.0017	0.122 ± 0.049	0.0819 ± 0.035
U49C U69C	< 1e-05	< 1e-05	< 1e-05	< 1e-05	–
G51C G63C	< 1e-05	–	< 1e-05	< 1e-05	< 1e-05
G44U U57C	< 1e-05	< 1e-05	–	–	–
G44U U57A	< 1e-05	< 1e-05	< 1e-05	–	< 1e-05
A42C G43U A48G G62C C67A C70G	< 1e-05	< 1e-05	–	< 1e-05	–
A52C A53G	< 1e-05	< 1e-05	< 1e-05	< 1e-05	< 1e-05
G43C G51A	< 1e-05	–	< 1e-05	< 1e-05	< 1e-05
G41U G44U	< 1e-05	< 1e-05	< 1e-05	< 1e-05	< 1e-05
A42U G63C	< 1e-05	< 1e-05	< 1e-05	< 1e-05	< 1e-05
U45C G60C	< 1e-05	< 1e-05	< 1e-05	< 1e-05	< 1e-05
U46G A53G	0.000271 ± 7.8e-05	0.00165 ± 0.00049	0.000482 ± 0.00011	0.00267 ± 0.00089	0.00811 ± 0.0028
U49A C58U	< 1e-05	< 1e-05	–	< 1e-05	–
C50G U69G	0.000135 ± 1.6e-05	0.000151 ± 2.4e-05	0.000165 ± 3e-05	0.000126 ± 2e-05	0.000141 ± 1.5e-05
A48U A52C	< 1e-05	< 1e-05	< 1e-05	–	< 1e-05
A48U A52U	< 1e-05	< 1e-05	< 1e-05	< 1e-05	< 1e-05
A48U A52G	< 1e-05	–	–	–	–
A42C C70G	< 1e-05	–	< 1e-05	–	–

Variant	self-cleavage kobs at 40 uM GlcN6P [1] [s⁻¹]	self-cleavage kobs at 640 uM GlcN6P [2] [s⁻¹]	self-cleavage kobs at 160 uM GlcN6P [3] [s⁻¹]	self-cleavage kobs at 2500 uM GlcN6P [4] [s⁻¹]	self-cleavage kobs at 10000 uM GlcN6P [5] [s⁻¹]
G44A C58A C70U	< 1e-05	< 1e-05	< 1e-05	–	–
A42U A48U	< 1e-05	< 1e-05	–	< 1e-05	–
C50A U57A	< 1e-05	–	–	< 1e-05	–
U47C A53U U56A G59C	< 1e-05	< 1e-05	–	< 1e-05	< 1e-05
G44C U45A U46G	< 1e-05	< 1e-05	–	–	3.99e-05 ± 2e-05
C50G C68A	7.16e-05 ± 9.2e-06	0.000137 ± 2.4e-05	0.000228 ± 3.1e-05	–	–
G44C U49G C58U	< 1e-05	–	–	–	< 1e-05
A42C A48G C61G	< 1e-05	–	–	–	< 1e-05
G44U C71U	< 1e-05	–	–	–	–
G51C C71A	< 1e-05	< 1e-05	< 1e-05	–	< 1e-05
G44A C67U	0.000707 ± 7e-05	–	–	–	–
U47C A48G G59U U65C	< 1e-05	–	–	–	–
U47C C50U U56G	< 1e-05	–	–	–	–
G43A U65A	< 1e-05	< 1e-05	< 1e-05	–	–
U45A C58U	< 1e-05	–	–	9.07e-05 ± 1.6e-05	0.000149 ± 2.4e-05
A42G A64U	< 1e-05	–	–	–	–
G44A C58A	< 1e-05	< 1e-05	< 1e-05	–	–
G44U A53C A64G	< 1e-05	–	–	–	< 1e-05
U47C G62U U65G	< 1e-05	–	–	< 1e-05	< 1e-05
A42G C68U	0.000563 ± 7.3e-05	0.00237 ± 0.00041	0.000735 ± 0.00016	–	0.0168 ± 0.0034
A48G G60C	< 1e-05	< 1e-05	–	< 1e-05	< 1e-05

From the supplement of paper PMC7125110
